Among all 340,000 compounds or so, about 6,900 (2%) were called active. Cut-off read from the data, not from the text of the source: active = inhibition above about 30%; inactive = below that, where a call was filed. The entries are a selection whose mix differs from that of the whole data set. The source gives no active or inactive call for entries shown without one.
Target: D(2) dopamine receptor (Homo sapiens) (UniProt P14416)
Assay: HTS Assay for Allosteric Antagonists of the Human D2 Dopamine Receptor: Primary Screen for Antagonists; note: 0% is about no effect
Conditions: HEK293 TREx D2 cells, calcium flux, dopamine EC80; at 10 µM; stronger effect = higher value
Summary of the method: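 Calcium mobilization kinetics were recorded at 1 s intervals in tetracycline-induced HEK293 T-REx D2 cells, first for 180 s after compound addition and then 180 s after EC80 dopamine.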

UniProt P14416, sequence (P14416 whole entry, looked up): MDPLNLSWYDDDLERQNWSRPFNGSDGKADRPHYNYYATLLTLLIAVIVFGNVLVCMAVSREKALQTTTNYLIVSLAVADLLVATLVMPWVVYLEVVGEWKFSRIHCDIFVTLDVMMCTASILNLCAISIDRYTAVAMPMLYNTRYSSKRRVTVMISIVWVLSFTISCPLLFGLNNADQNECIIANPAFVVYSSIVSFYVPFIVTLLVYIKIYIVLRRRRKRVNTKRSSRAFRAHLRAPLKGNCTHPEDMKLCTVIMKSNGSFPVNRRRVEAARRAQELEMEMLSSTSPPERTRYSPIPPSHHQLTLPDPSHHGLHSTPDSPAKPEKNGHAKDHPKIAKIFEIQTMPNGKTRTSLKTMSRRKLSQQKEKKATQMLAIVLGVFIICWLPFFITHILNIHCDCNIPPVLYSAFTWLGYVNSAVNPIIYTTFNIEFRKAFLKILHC

Structure (SMILES)	inhibition
COc1ccccc1NC(=O)C1=C(C)Nc2nc(SCc3ccccc3Cl)nn2C1c1ccncc1 (centres undefined)	2.43%
CCN(CC)S(=O)(=O)c1ccc(C(=O)NCCSc2c(-c3ccc(OC)cc3)[nH]c3ccccc23)cc1	3.02%
CNC(=O)C1CCC(Cn2c(=O)c3sccc3n(CC(=O)Nc3cc(F)ccc3F)c2=O)CC1 (centres undefined)	11.1%
CC(=O)Nc1cccc(NC(=O)CSc2cn(CC(=O)N3CCCCCC3)c3ccccc23)c1	-13.5%
O=C(Nc1ccc2oc(-c3cccc(Cl)c3Cl)nc2c1)c1cccc(Br)c1	7.28%
COc1cn(CC(=O)Nc2cc(C)ccc2C)c(CN2CCCCC2)cc1=O	4.51%
O=[N+]([O-])c1cc(-c2nc(-c3ccncc3)no2)ccc1NCc1ccccc1	-14%
O=C(c1cn(CCOc2ccc(Cl)cc2)c2ccccc12)C1CCCCC1	6.09%
CC1=C(C(=O)Nc2ccc(F)cc2F)C2(CCCCCC2)OC1=O	-5.59%
O=C(CN1C(=O)C2(SCC(=O)N2c2ccc(F)c(F)c2)c2ccccc21)Nc1ccccc1F (centres undefined)	9.11%
CCOC(=O)c1ccc(N2C(=O)c3n[nH]c(-c4ccco4)c3C2c2ccc(F)cc2)cc1 (centres undefined)	12.9%
COc1ccccc1CNC(=O)C(CC(C)C)N1Cc2ccccc2C1=O (centres undefined)	9.04%
O=C(CSc1nccn1Cc1ccc(Cl)cc1)NCc1ccccc1	-2.17%
O=C(Nc1ccc(Cl)c(C(F)(F)F)c1)N1CCCC(O)C1 (centres undefined)	active: 30.4%
Cc1ccc(C)c(C(=O)COC(=O)CCCC(=O)Nc2cc(C(F)(F)F)ccc2Cl)c1	25.7%
Cc1cccc(CC(=O)NCCc2csc(-c3ccc(C(F)(F)F)cc3)n2)c1	19.2%
COc1ccc(-c2cc3ccccc3n2CC(O)CN2CCCCC2)cc1 (centres undefined)	active: 42.9%
CCOc1ccc(CCNC(=O)c2cnc3sc(N4CCCCCC4)nn3c2=O)cc1	3.78%
COc1ccc(OC)c(NC(=O)CN2CCCN(Cc3cc(C)ccc3C)S2(=O)=O)c1	2.35%
Nc1nc(NC(=O)/C=C\C(=O)O)nn1-c1ccccc1	active: 35.5%
CCOC(=O)Nc1ccc2c(c1)nc(CN1CCCCC1)n2C	active: 30.8%
CN(CC(=O)Nc1ccc(OC(F)(F)F)cc1)C(=O)/C=C/c1cc2c(cc1[N+](=O)[O-])OCO2	active: 79.9%
Cc1cccc2c1-c1sc(C(=O)N3CCN(c4cccc(Cl)c4)CC3)cc1CO2	-1.67%
CC(C)OCc1cc(CN2CCN(c3ccccc3)CC2)c(O)c2ncccc12	0.475%

Structure (SMILES)	inhibition
COc1ccc(-c2cc(C(F)(F)F)nc(SCC(=O)NCc3ccc(Cl)cc3)n2)cc1	4.53%
Cc1cc2nc(-c3cccc(NC(=O)COc4ccc(Cl)c(C)c4)c3)oc2cc1C	14.4%
Cc1cccc(N(C)S(=O)(=O)c2c(C(=O)N3CCCCCC3)c(C)n(C)c2C)c1	19.6%
O=C(NCc1ccccc1)C1CCN(S(=O)(=O)c2ccc3[nH]c(=O)ccc3c2)CC1	13%
COc1ccc(NC(=O)c2c(NCc3cccc(F)c3)sc3c2CCCC3)c(OC)c1	-7.37%
Cc1ccc(CNC(=O)CN2CCN(Cc3ccc(F)cc3)C2=O)cc1	17.5%
Cc1ccc(Cl)cc1-n1ncc2c(N3CCC(C)CC3)ncnc21	-21%
CCc1nnc(NC(=O)C(C)N2C(=O)C3C4C=CC(C4)C3C2=O)s1 (centres undefined)	active: 32.8%
COc1ccccc1NC(=O)C1CCN(S(=O)(=O)c2cn(C)cn2)CC1	-16.6%
COc1cc(OC)c(CNC2CCCCCC2)cc1Br	active: 48.7%
Cc1ccc(N(C(=O)c2snc(C(N)=O)c2N)C(C(=O)NC2CCCC2)c2ccncc2)cc1 (centres undefined)	active: 105%
CCOc1ccc(NC(=O)CN2C(C(=O)OC)=C(c3ccccc3)c3cc(Cl)ccc3S2(=O)=O)cc1	11.1%
COC(=O)C1=C(c2ccccc2)c2ccccc2S(=O)(=O)N1CC(=O)Nc1ccc(OC)cc1OC	-4.18%
Cc1cc(=O)[nH]c2nnc(SCc3ccc(Cl)cc3)n12	-18.9%
CCOc1ccc(Nc2nc(C)c(NC(=O)c3cccc(OC)c3)c(Nc3ccc(OCC)cc3)n2)cc1	14%
Cc1ccccc1CSc1nc2cccnc2n1Cc1ccc(C(=O)NC2CC2)cc1	-2.68%
COc1ccc(CNC(=O)C2CCC(CNS(=O)(=O)c3cccs3)CC2)cc1 (centres undefined)	7.07%
CCOC(=O)c1ccccc1NC(=O)CSc1cn(CC(=O)N2CCOCC2)c2ccccc12	3%
Cc1ccc(N2CCN(S(=O)(=O)c3nnc(NC(=O)c4ccc(C(C)C)cc4)s3)CC2)cc1	7.17%
Cc1ccc(-c2nc(S(=O)(=O)c3ccc(C)cc3)c(N3CCCCCC3)o2)cc1	-5.54%
CCN(CC)CCn1c(NS(=O)(=O)c2ccc(C)cc2)nc2ccccc21	active: 51.4%
CCOc1ccc(NC(=O)Cn2c(=O)cc(C)c3c(C)nn(-c4cccc(Cl)c4C)c32)cc1	6.94%
Cc1cnc(C(=O)Nc2ccc(S(=O)(=O)NCC(C)C)cc2)cn1	active: 35.8%
Cn1c(=O)[nH]c(=O)c2c1nc1n2CCN1c1ccccc1	22.9%

Structure (SMILES)	inhibition
Cc1nn(-c2ccc(N3CCCC3)nn2)c(C)c1CCC(=O)NCc1ccc(OC(C)C)cc1	-16%
CCOc1ccc(C(=O)N2CCN(CCc3ccccn3)CC2)cc1	10.4%
CCOc1ccc(S(=O)(=O)c2cn(Cc3ccc(OC)cc3)c3ccc(F)cc3c2=O)cc1	-1%
CC(C)c1ccc(NC(=O)CCNS(=O)(=O)c2ccc3c(c2)CCCC(=O)N3)cc1	1.84%
CCOC(=O)CC(NC(=O)CCc1c(C)nc2ncnn2c1C)c1ccc(OC(C)C)cc1 (centres undefined)	-1.38%
CCOC(=O)C1=C(CN(CC)Cc2ccccc2)NC(=O)NC1c1ccc(OC(C)C)cc1 (centres undefined)	18.8%
COc1ccccc1CNC(=O)c1ccc(N2CCCC2)c(NC(=O)NCc2ccc(F)cc2)c1	-6.54%
CCCCSCCCNC(=O)C1CCN(Cc2nc(-c3cccc(Br)c3)oc2C)CC1	-5.04%
Cn1cc(CN2CCN(c3ccccc3)CC2)c2ccccc21	active: 80.9%
O=C(Cn1ncc2c3ccccc3n(Cc3ccccc3F)c2c1=O)N1CCCCC1	15.7%
CC(C)CN(CCCNC(=O)CN1N=C(c2ccccc2)CCC1=O)CC(C)C	11.8%
CCOc1ccc(CCNC(=O)c2[nH]c3cc(OC)ccc3c2Sc2ccccc2)cc1OCC	12.9%
CC(=O)c1cc2c(cc1NC(=O)c1cnn(-c3ccc(C)cc3)c1-n1cccc1)OCO2	7.42%
O=C(NCCC1=CCCCC1)c1ccc2c(c1)N(Cc1cccc(Cl)c1)C(=O)c1ccccc1S2(=O)=O	12.2%
COc1ccc(N2CCN(c3ccc(-c4nc(-c5cccc(C)c5)no4)cc3[N+](=O)[O-])CC2)cc1	13.6%
COc1ccc(OC)c(S(=O)(=O)N2CCN(c3c(C)cccc3C)CC2)c1	active: 35.7%
Cc1cc(C)c(NC(=O)CSc2nc(-c3ccc(F)cc3)nc3c2Cc2c(CO)cnc(C)c2O3)c(C)c1	10.2%
CCOc1cc(C)c(Cl)cc1S(=O)(=O)N(C)C	active: 48.7%
CCN1CCN(c2nc3ccccn3c(=O)c2/C=C(\C#N)S(=O)(=O)c2ccccc2)CC1	active: 33.6%
COc1ccc(S(=O)(=O)N(CC(=O)Nc2cccc(C)c2)c2ccc(C)cc2)cc1OC	4.04%
CC1CCN(S(=O)(=O)c2ccc3c(c2)N(CC(=O)O)C(=O)CO3)CC1	4.06%
CCOC(=O)c1ccccc1NC(=O)N1CCOc2ccc(Cl)cc21	8.99%
OC1CCN(Cc2ccc3ccccc3c2)CC1	active: 45.6%
Cc1cc(Cl)ccc1NC(=O)C1CCN(c2nnc(-n3c(C)ccc3C)s2)CC1	-5.04%

Structure (SMILES)	inhibition
COc1ccc(-c2cc(C(F)(F)F)n3nc(C(=O)NCC45CC6CC(CC(C6)C4)C5)cc3n2)cc1OC	-8.04%
CCc1ccccc1NC(=O)CSc1nc2c(oc3ccccc32)c(=O)n1-c1ccccc1F	-4.21%
CC(=O)Nc1ccc(-c2nnc(SCC(=O)c3ccc([N+](=O)[O-])cc3)o2)cc1	0.488%
Cc1ccc2ccc3cc(C(=O)N4CCN(c5ccccc5)CC4)nc3c2[nH]1	6.68%
COc1ccc(CCN(C)CC(O)COc2ccc(C(C)=O)cc2OC)cc1OC (centres undefined)	active: 36%
Cc1ccc(NC(=O)C(=O)NCC(c2cccnc2)N2CCN(Cc3ccccc3)CC2)cc1 (centres undefined)	0.307%
O=S(=O)(NCc1ccccc1Cl)c1ccc(N2CCCCS2(=O)=O)cc1	6.55%
CCCCN(C)CCNC(=O)c1ccc2c(c1)NC(=O)CN2	-19.9%
Cc1cccn2c(=O)c3cc(C(=O)N(Cc4ccccc4)C(C)C)sc3nc12	13.4%
Cc1c(C(=O)NCCc2ccc(S(N)(=O)=O)cc2)sc2nc3n(c(=O)c12)CCCC3	9.1%
Fc1ccccc1-n1ncc2c1ncn1nc(Cc3ccccc3)nc21	8.47%
Cc1ccccc1NC(=O)CN(c1ccc(Cl)cc1Cl)S(=O)(=O)c1ccccc1	5.69%
Cc1cn(C)c(CC(=O)N2CCN(c3ccccc3F)CC2)c1C(=O)O	-11.1%
COc1ccc(-c2nc3sc(CCNC(=O)c4ccccc4C)c(C)n3n2)cc1	-23.5%
CC(CNC(=O)CCS(=O)(=O)c1ccc2c(c1)oc(=O)n2C)c1ccccc1 (centres undefined)	-0.937%
Cc1ccc2c(c1)-c1c(c(C(=O)N3CCN(c4cc(Cl)ccc4C)CC3)nn1C)CS2	5.06%
COc1ccc(OC)c(S(=O)(=O)N2CC=C(c3c(C)n(CC(=O)N4CCCC4)c4ccccc34)CC2)c1	-7.24%
CCOc1ccc(C2C(C(=O)Nc3ccc(Cl)cc3)=C(C)Nc3nc(C(F)(F)F)nn32)cc1 (centres undefined)	-5.05%
CSCC(C)N1CCC(n2nccc2NC(=O)c2ccc3c(c2)OCO3)CC1 (centres undefined)	active: 58.3%
O=S(=O)(c1ccc(Cl)cc1)c1nnn2c1nc(N1CCCCC1)c1sccc12	14.4%
CC(=O)N1CCc2cc(Br)cc(S(=O)(=O)N3CCN(c4cccc(C)c4)C(C)C3)c21 (centres undefined)	-2.44%
COc1ccc(N2CCN(C(=O)CS(=O)(=O)c3cccc4nsnc34)CC2)cc1	27.3%
